{"source": "paper PMC10668032", "note": "The list shows a part of the results. At the low end of the ranking the order means little.", "data": [{"target": "SIX1 homeodomain (reference allele) (UniProt Q15475)", "test": "universal protein binding microarray", "details": "Universal all-10-mer PBM (8x60K, AMADID 030236), 300 nM GST-tagged protein, Alexa Fluor 488 anti-GST; buffer, salt, pH and temperature not stated; high values mean tight binding; most listed sequences are background and not binding sites; double strand, one strand shown", "units": {"binding signal": "E-score"}, "values": [{"sequence": "CCTAGTAG", "binding signal": -0.0213}, {"sequence": "ATTGAAGG", "binding signal": -0.15}, {"sequence": "ACGAGTCA", "binding signal": -0.222}, {"sequence": "CGGGACAC", "binding signal": 0.153}, {"sequence": "AATGAGCA", "binding signal": -0.177}, {"sequence": "AAGGCATA", "binding signal": -0.0161}, {"sequence": "CATCCTCA", "binding signal": 0.0138}, {"sequence": "GGAAGCAC", "binding signal": -0.2}, {"sequence": "AGGTCCAC", "binding signal": -0.307}, {"sequence": "ACAGATCG", "binding signal": 0.235}, {"sequence": "GATCCGTA", "binding signal": 0.383}, {"sequence": "ATGTCTAA", "binding signal": -0.00734}, {"sequence": "AAGAACAC", "binding signal": -0.0346}, {"sequence": "GTGGATAA", "binding signal": 0.249}, {"sequence": "CTTAGACA", "binding signal": -0.118}, {"sequence": "CATCTAAG", "binding signal": 0.178}, {"sequence": "GATGGGAC", "binding signal": -0.0817}, {"sequence": "CACCCCCC", "binding signal": 0.0352}, {"sequence": "TCCTCGCA", "binding signal": -0.174}, {"sequence": "ACGGCACC", "binding signal": -0.2}, {"sequence": "ACCGGCGT", "binding signal": -0.0532}, {"sequence": "ATCTCTTC", "binding signal": 0.237}, {"sequence": "CTTGCGCC", "binding signal": -0.198}, {"sequence": "ATATACAT", "binding signal": 0.301}, {"sequence": "CCCGATGA", "binding signal": 0.226}, {"sequence": "ACCTAGAC", "binding signal": -0.14}, {"sequence": "GTCATAGA", "binding signal": -0.0374}, {"sequence": "AGAGTCAG", "binding signal": -0.15}, {"sequence": "AGGCTTGC", "binding signal": -0.22}, {"sequence": "CGCTCAGA", "binding signal": -0.133}, {"sequence": "ACAAGCGC", "binding signal": -0.31}, {"sequence": "CCGATCGC", "binding signal": 0.212}, {"sequence": "TCCCCGGA", "binding signal": 0.11}, {"sequence": "AAACGAAC", "binding signal": -0.0714}, {"sequence": "CTGCAACC", "binding signal": -0.0757}, {"sequence": "TGACAAAA", "binding signal": -0.249}, {"sequence": "ACTATTGC", "binding signal": -0.166}, {"sequence": "AGATGACA", "binding signal": 0.0629}, {"sequence": "AGTGAATC", "binding signal": -0.0511}, {"sequence": "AAGACTGC", "binding signal": -0.291}, {"sequence": "GAAATTTA", "binding signal": -0.283}, {"sequence": "AATACCTC", "binding signal": 0.331}, {"sequence": "AGAACTAC", "binding signal": -0.0612}, {"sequence": "ATAAAATA", "binding signal": 0.201}, {"sequence": "CGAGCGTA", "binding signal": -0.0467}, {"sequence": "AATATCCG", "binding signal": 0.317}, {"sequence": "CTGCGTGC", "binding signal": -0.199}, {"sequence": "AATCATCC", "binding signal": 0.0593}, {"sequence": "ACAGCCAT", "binding signal": 0.0303}, {"sequence": "ATGGATCC", "binding signal": 0.362}, {"sequence": "GGCAGAAA", "binding signal": -0.139}, {"sequence": "TGAATAAA", "binding signal": -0.238}, {"sequence": "TCGAGTAA", "binding signal": -0.108}, {"sequence": "CCGAGACG", "binding signal": 0.0724}, {"sequence": "CAGACTGA", "binding signal": -0.00513}, {"sequence": "AGAGAGGA", "binding signal": 0.0333}, {"sequence": "ATACGTCG", "binding signal": 0.284}, {"sequence": "GGCCACCC", "binding signal": -0.274}, {"sequence": "AAATCAAG", "binding signal": -0.234}, {"sequence": "CTCAAAAC", "binding signal": -0.1}, {"sequence": "TCATTTAA", "binding signal": 0.0933}, {"sequence": "TACATATA", "binding signal": 0.254}, {"sequence": "CCCACAAA", "binding signal": 0.0457}, {"sequence": "CATTAGAC", "binding signal": 0.0165}, {"sequence": "AAGCGCCC", "binding signal": -0.196}, {"sequence": "CAAAGTCC", "binding signal": -0.096}, {"sequence": "AGACGCTA", "binding signal": 0.0493}, {"sequence": "AATGACTC", "binding signal": -0.212}, {"sequence": "CGACGAAG", "binding signal": -0.135}, {"sequence": "GTCGCTGA", "binding signal": -0.0154}, {"sequence": "GCTAGGAA", "binding signal": -0.138}, {"sequence": "CAAATGAC", "binding signal": -0.292}, {"sequence": "AAAGCCGC", "binding signal": -0.288}, {"sequence": "CATGCAGC", "binding signal": -0.0629}, {"sequence": "AACCCTGC", "binding signal": 0.0338}, {"sequence": "GCCGAACA", "binding signal": -0.239}, {"sequence": "ACATTTAC", "binding signal": -0.171}, {"sequence": "GCAGGTTA", "binding signal": 0.0305}, {"sequence": "AAAGGACG", "binding signal": -0.287}, {"sequence": "CAGGAATC", "binding signal": 0.133}, {"sequence": "AGGGGGCC", "binding signal": -0.245}, {"sequence": "AGACCTTA", "binding signal": 0.0295}, {"sequence": "AGCGATTG", "binding signal": -0.0994}, {"sequence": "ATGTCTTA", "binding signal": -0.0747}, {"sequence": "AGGAGTTG", "binding signal": -0.112}, {"sequence": "AACCGAGC", "binding signal": -0.154}, {"sequence": "GAGCCGAC", "binding signal": -0.172}, {"sequence": "GAACCCAC", "binding signal": 0.106}, {"sequence": "CAACTTAG", "binding signal": -0.0537}, {"sequence": "AAGCAGTA", "binding signal": -0.0251}, {"sequence": "GAGCTAAA", "binding signal": -0.196}, {"sequence": "ATCCACCC", "binding signal": 0.343}, {"sequence": "GAGTATGC", "binding signal": -0.0971}, {"sequence": "CACAAAGC", "binding signal": -0.137}, {"sequence": "GATGGACA", "binding signal": -0.00968}, {"sequence": "CACACAGC", "binding signal": -0.164}, {"sequence": "CATAACAA", "binding signal": -0.175}, {"sequence": "CACTGGGG", "binding signal": 0.0491}, {"sequence": "AAGCTACT", "binding signal": 0.00855}, {"sequence": "CGGGTCCC", "binding signal": 0.0186}, {"sequence": "ACATGTTA", "binding signal": -0.0786}, {"sequence": "CCGCTTGC", "binding signal": -0.0988}, {"sequence": "AGAGAGGG", "binding signal": 0.0238}, {"sequence": "ATACCCAA", "binding signal": 0.401}, {"sequence": "AATTTGAT", "binding signal": 0.149}, {"sequence": "TAATACAA", "binding signal": 0.154}, {"sequence": "CATGCTCG", "binding signal": -0.198}, {"sequence": "TGTACAAA", "binding signal": -0.21}, {"sequence": "AGGGTGAT", "binding signal": 0.366}, {"sequence": "GCTGCCAC", "binding signal": -0.201}, {"sequence": "AATTTTAC", "binding signal": -0.242}, {"sequence": "ATAGGGGA", "binding signal": 0.287}, {"sequence": "AGTCATAT", "binding signal": 0.257}, {"sequence": "AGATACTC", "binding signal": 0.402}, {"sequence": "AAACGGTC", "binding signal": -0.335}, {"sequence": "GCCGCTCA", "binding signal": -0.201}, {"sequence": "CTTCGGAC", "binding signal": 0.0614}, {"sequence": "AGGAACTC", "binding signal": -0.286}, {"sequence": "GAATGGTA", "binding signal": -0.0789}, {"sequence": "ATGAGGGG", "binding signal": 0.0899}, {"sequence": "AGCGCAGG", "binding signal": -0.115}, {"sequence": "GTGCCAAC", "binding signal": -0.0705}, {"sequence": "GGGGGGTA", "binding signal": 0.26}, {"sequence": "GAAACGTA", "binding signal": -0.161}, {"sequence": "GCTGTCAA", "binding signal": -0.154}, {"sequence": "GCCTTTAC", "binding signal": -0.178}, {"sequence": "ACTTATAG", "binding signal": -0.0185}, {"sequence": "AAGAAATA", "binding signal": -0.13}, {"sequence": "AAAGGAGG", "binding signal": -0.202}, {"sequence": "GACCCATA", "binding signal": 0.116}, {"sequence": "ACCATTCT", "binding signal": -0.118}, {"sequence": "GCTGGCCC", "binding signal": -0.182}, {"sequence": "ACAGGGGT", "binding signal": 0.156}, {"sequence": "GTGAACCA", "binding signal": -0.0156}, {"sequence": "AGTGAAAA", "binding signal": -0.172}, {"sequence": "CTTTCAGA", "binding signal": -0.094}, {"sequence": "CGTCGCAG", "binding signal": -0.168}, {"sequence": "GACGAGGA", "binding signal": -0.0704}, {"sequence": "GGAGGCCA", "binding signal": -0.0651}, {"sequence": "ATCCGCCG", "binding signal": 0.361}, {"sequence": "ACTGATGA", "binding signal": -0.0721}, {"sequence": "AGGATCTG", "binding signal": 0.244}, {"sequence": "CTCCGGGC", "binding signal": -0.16}, {"sequence": "CTAGAGCA", "binding signal": -0.0639}, {"sequence": "GAAGTCCC", "binding signal": -0.288}, {"sequence": "AACAAAAT", "binding signal": -0.334}, {"sequence": "AGTTGTTC", "binding signal": -0.33}, {"sequence": "TCATAGCA", "binding signal": -0.0469}, {"sequence": "CCTCTCTA", "binding signal": -0.104}, {"sequence": "CCTGGTAC", "binding signal": -0.0166}, {"sequence": "CCATTTCG", "binding signal": -0.0817}, {"sequence": "CCAACTCG", "binding signal": -0.00197}, {"sequence": "TAAAGTGA", "binding signal": 0.131}, {"sequence": "CGCATCTA", "binding signal": 0.0774}, {"sequence": "ACCTTACG", "binding signal": -0.102}, {"sequence": "CACGCGCA", "binding signal": -0.109}, {"sequence": "ATAGCCTG", "binding signal": 0.205}, {"sequence": "CCATATTA", "binding signal": 0.265}, {"sequence": "AAACCGTG", "binding signal": -0.00827}, {"sequence": "CACAAGCC", "binding signal": -0.241}, {"sequence": "GTATTAAC", "binding signal": 0.272}, {"sequence": "TAGTTCGA", "binding signal": -0.0607}, {"sequence": "ACGATAAA", "binding signal": -0.161}, {"sequence": "TATATACA", "binding signal": 0.284}, {"sequence": "AGTGGCAA", "binding signal": -0.0548}, {"sequence": "CATATCGC", "binding signal": 0.424}, {"sequence": "CAGCTGTA", "binding signal": -0.2}, {"sequence": "CTAGAGAC", "binding signal": -0.179}, {"sequence": "TGAAATCA", "binding signal": -0.131}, {"sequence": "AGCGGCAT", "binding signal": 0.0587}, {"sequence": "CGATAAAA", "binding signal": 0.0179}, {"sequence": "AAGACTAG", "binding signal": -0.268}]}]}
